Consider 66 cell lines from the supplement of paper PMC4967469.

Lines with a small IC50 respond at low doses; where the fit passes the top or lowest dose, that dose stands as a limit. The AUC spans the tested range (256-fold, ending at the top dose) of the same fit; it is 1 without any effect and falls as sensitivity rises.

Compound in this experiment: N#CC[C@H](C1CCCC1)n1cc(-c2ncnc3[nH]ccc23)cn1 [Ruxolitinib]
Put plainly: Viability of human cancer cell lines after 72 h of drug (GDSC screen). The protocol: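 Human cancer cell lines in 384-well plates, medium with 10% serum, drug for 72 h over a 256-fold dose range (nine 2-fold or five 4-fold steps up to the top dose). Adherent lines were fixed and stained with the nucleic acid dye Syto60, suspension lines read with resazurin; signal relative to control wells, capped at 0 and 100%. One two-parameter sigmoid per drug and line, fitted in a mixed model over all curves with the slope shared within a line.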

For orientation: IC50 means the concentration needed to halve the response being measured.

With “COLO-824 (breast, adherent, top dose 5.24 µM)”, the AUC was 0.98 and the IC50 was above 5.24 µM.
Turning to “HT-144 (melanoma, adherent, top dose 5.24 µM)”, the AUC worked out at 0.984 and the IC50 was above 5.24 µM.
On to “LNZTA3WT4 (glioma, adherent, top dose 5.24 µM)”, for which the AUC stood at 0.989 and the IC50 is above 5.24 µM.
For “PC-14 (lung adenocarcinoma, adherent, top dose 5.24 µM)” the same measures were 0.974 and above 5.24 µM.
For “OS-RC-2 (kidney, adherent, top dose 5.24 µM)” the same measures were 0.978 and above 5.24 µM.
Regarding “SK-LMS-1 (soft tissue, adherent, top dose 5.24 µM)”, the AUC is 0.987 and the IC50 is above 5.24 µM.
Take “HOS (osteosarcoma, adherent, top dose 5.24 µM)”: the AUC was found to be 0.992 and the IC50 was above 5.24 µM.
The corresponding values for “KURAMOCHI (ovary, adherent, top dose 5.24 µM)” are 0.984 and above 5.24 µM.
As to “RERF-LC-MS (lung adenocarcinoma, adherent, top dose 5.24 µM)”, the AUC was determined as 0.984 and the IC50 is above 5.24 µM.
The corresponding values for “NAMALWA (Burkitt lymphoma, suspension, top dose 5.24 µM)” are 0.986 and above 5.24 µM.
Consider “SK-HEP-1 (liver, adherent, top dose 5.24 µM)”, for which the AUC amounted to 0.989 and the IC50 is above 5.24 µM.
Regarding “NB17 (neuroblastoma, adherent, top dose 5.24 µM)”, the AUC was determined as 0.983 and the IC50 was above 5.24 µM.
The corresponding values for C3A (liver, adherent, top dose 5.24 µM) are 0.985 and above 5.24 µM.
Turning to “RCC-ER (kidney, adherent, top dose 5.24 µM)”, the AUC came out at 0.986 and the IC50 was above 5.24 µM.
The corresponding values for “RC-K8 (B-cell lymphoma, suspension, top dose 5.24 µM)” are 0.993 and above 5.24 µM.
In the case of “NCI-H1755 (lung adenocarcinoma, adherent, top dose 5.24 µM)”, the AUC came out at 0.965 and the IC50 was above 5.24 µM.
The corresponding values for “VA-ES-BJ (soft tissue, adherent, top dose 5.24 µM)” are 0.985 and above 5.24 µM.
Take “M14 (melanoma, adherent, top dose 5.24 µM)”: the AUC is 0.985 and the IC50 was above 5.24 µM.
With “NCI-H522 (lung adenocarcinoma, adherent, top dose 5.24 µM)”, the AUC is 0.979 and the IC50 is above 5.24 µM.
In the case of A388 (skin, adherent, top dose 5.24 µM), the AUC came to 0.983 and the IC50 is above 5.24 µM.
As to “MPP-89 (mesothelioma, adherent, top dose 5.24 µM)”, the AUC came out at 0.981 and the IC50 was above 5.24 µM.
On to “MZ1-PC (pancreas, adherent, top dose 5.24 µM)”, for which the AUC was 0.979 and the IC50 is above 5.24 µM.
The corresponding values for “NCI-H23 (lung adenocarcinoma, adherent, top dose 5.24 µM)” are 0.976 and above 5.24 µM.
Take “TE-10 (oesophagus, adherent, top dose 5.24 µM)”: the AUC is 0.982 and the IC50 was above 5.24 µM.
For “H2731 (mesothelioma, adherent, top dose 5.24 µM)” the same measures were 0.98 and above 5.24 µM.
“NCI-H1648 (lung adenocarcinoma, adherent, top dose 5.24 µM)”: the AUC was determined as 0.985 and the IC50 is above 5.24 µM.
On to “KU-19-19 (bladder, adherent, top dose 5.24 µM)”, for which the AUC was determined as 0.986 and the half-maximal inhibitory concentration (IC50) is above 5.24 µM.
Regarding “IGR-1 (melanoma, adherent, top dose 5.24 µM)”, the AUC is 0.963 and the 50% inhibitory concentration (IC50) is above 5.24 µM.
Turning to “RPMI-8226 (myeloma, suspension, top dose 5.24 µM)”, the AUC came out at 0.99 and the IC50 was above 5.24 µM.
“HCC2218 (breast, suspension, top dose 5.24 µM)”: the AUC stood at 0.983 and the IC50 is above 5.24 µM.
Take “HCC1428 (breast, adherent, top dose 5.24 µM)”: the AUC is 0.987 and the IC50 was above 5.24 µM.
As to “NCI-H64 (small cell lung carcinoma, suspension, top dose 5.24 µM)”, the AUC was found to be 0.996 and the IC50 was above 5.24 µM.
With “BHT-101 (thyroid, adherent, top dose 5.24 µM)”, the AUC stood at 0.982 and the half-inhibitory concentration (IC50) was above 5.24 µM.
Take “NCI-SNU-16 (stomach, suspension, top dose 5.24 µM)”: the AUC came to 0.991 and the IC50 is above 5.24 µM.
Consider “NCI-H810 (large cell lung carcinoma, adherent, top dose 5.24 µM)”, for which the AUC came to 0.988 and the IC50 was above 5.24 µM.
The corresponding values for “MOLP-8 (myeloma, suspension, top dose 5.24 µM)” are 0.961 and above 5.24 µM.
The corresponding values for “KINGS-1 (glioma, adherent, top dose 5.24 µM)” are 0.979 and above 5.24 µM.
Consider “CHSA0011 (chondrosarcoma, adherent, top dose 5.24 µM)”, for which the AUC was determined as 0.978 and the IC50 is above 5.24 µM.
Turning to “SK-N-AS (neuroblastoma, adherent, top dose 5.24 µM)”, the AUC was 0.979 and the IC50 is above 5.24 µM.
Consider “LXF-289 (lung adenocarcinoma, adherent, top dose 5.24 µM)”, for which the AUC was 0.986 and the IC50 was above 5.24 µM.
The corresponding values for “NCI-H1435 (lung adenocarcinoma, semi-adherent, top dose 5.24 µM)” are 0.99 and above 5.24 µM.
As to “SK-MES-1 (lung squamous cell carcinoma, adherent, top dose 5.24 µM)”, the AUC is 0.979 and the concentration for half-maximal inhibition (IC50) was above 5.24 µM.
For “786-0 (kidney, adherent, top dose 5.24 µM)” the same measures were 0.985 and above 5.24 µM.
As for “ETK-1 (biliary tract, adherent, top dose 5.24 µM)”, the AUC came to 0.979 and the IC50 was above 5.24 µM.
Consider “NCI-H1581 (large cell lung carcinoma, semi-adherent, top dose 5.24 µM)”, for which the AUC turned out to be 0.986 and the IC50 was above 5.24 µM.
For the cell line “CAKI-1 (kidney, adherent, top dose 5.24 µM)”, the AUC is 0.976 and the IC50 is above 5.24 µM.
Take “TE-12 (oesophagus, suspension, top dose 5.24 µM)”: the AUC was determined as 0.981 and the IC50 was above 5.24 µM.
Turning to “MES-SA (uterus, adherent, top dose 5.24 µM)”, the AUC was found to be 0.992 and the half-inhibitory concentration (IC50) is above 5.24 µM.
“RH-1 (rhabdomyosarcoma, adherent, top dose 5.24 µM)”: the AUC came out at 0.992 and the IC50 was above 5.24 µM.
Turning to “NB12 (neuroblastoma, adherent, top dose 5.24 µM)”, the AUC was 0.975 and the IC50 is above 5.24 µM.
As for “OE33 (oesophagus, adherent, top dose 5.24 µM)”, the AUC was 0.984 and the IC50 was above 5.24 µM.
As to “MKN1 (stomach, adherent, top dose 5.24 µM)”, the AUC came out at 0.977 and the half-inhibitory concentration (IC50) is above 5.24 µM.
As to “JIMT-1 (breast, adherent, top dose 5.24 µM)”, the AUC turned out to be 0.985 and the IC50 is above 5.24 µM.
“RPMI-8402 (T-cell lymphoblastic leukaemia, suspension, top dose 5.24 µM)”: the AUC stood at 0.987 and the IC50 was above 5.24 µM.
Turning to “OSC-20 (head and neck, adherent, top dose 5.24 µM)”, the AUC worked out at 0.983 and the IC50 is above 5.24 µM.
On to “JHH-7 (liver, adherent, top dose 5.24 µM)”, for which the AUC turned out to be 0.988 and the half-maximal inhibitory concentration (IC50) is above 5.24 µM.
For “JiyoyeP-2003 (Burkitt lymphoma, suspension, top dose 5.24 µM)”, the AUC was 0.991 and the IC50 was above 5.24 µM.
As to “SCC-4 (head and neck, adherent, top dose 5.24 µM)”, the AUC was determined as 0.984 and the IC50 is above 5.24 µM.
In the case of “NY (osteosarcoma, adherent, top dose 5.24 µM)”, the AUC amounted to 0.989 and the IC50 is above 5.24 µM.
In the case of “PANC-08-13 (pancreas, adherent, top dose 5.24 µM)”, the AUC amounted to 0.982 and the IC50 was above 5.24 µM.
For “DEL (lymphoid neoplasm, suspension, top dose 5.24 µM)”, the AUC was 0.966 and the IC50 was above 5.24 µM.
In the case of “EB-3 (Burkitt lymphoma, suspension, top dose 5.24 µM)”, the AUC came out at 0.95 and the IC50 was above 5.24 µM.
As for “CAS-1 (glioma, adherent, top dose 5.24 µM)”, the AUC amounted to 0.974 and the IC50 was above 5.24 µM.
Take “LB373-MEL-D (melanoma, adherent, top dose 5.24 µM)”: the AUC worked out at 0.989 and the half-maximal inhibitory concentration (IC50) was above 5.24 µM.
Turning to “KLE (endometrium, adherent, top dose 5.24 µM)”, the AUC came to 0.969 and the IC50 was above 5.24 µM.
As to “MRK-nu-1 (breast, suspension, top dose 5.24 µM)”, the AUC is 0.989 and the IC50 was above 5.24 µM.
